Measured values reported in PubChem BioAssay (NCATS).
The inconclusive results got no clear call from the source; some entries with a clear call stand among them for comparison. For some of these results: No potency is given beside an inconclusive call; the fits are too rough. Calls of active or inactive are those of the source. Unless noted, calls come from the whole dose curve; as a rule, active = well fitted curve in the direction sought with a large enough effect; inconclusive = small, poorly fitted or top-dose-only effect, or another doubt; inactive = no such curve, though single readings can be large; an effect the other way counts as inactive or inconclusive.

Legend:
[1] = tested on: Zika virus NS2B-NS3 protease (linked construct); experiment: Primary screen NINDS Rhodamine qHTS for Zika virus inhibitors (AID 1347160); conditions: activity change, negative = inhibition: at 57.1 µM (top of the series) unless noted; note: nearly all actives have a fitted effect of over 55% in size
Method in brief: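 Purified NS2B-NS3 protease with the NS2B hydrophilic domain joined by a flexible linker (25 nM) in 10 mM Tris-HCl pH 8.0, 0.01% Tween 20, preincubated 15 min at RT with compound; Rhodamine110 peptide substrate 1.5 µM; fluorescence change over 15 min; 4-parameter Hill fit.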

[2] = Primary qHTS for inhibitors of nuclear receptor binding SET domain protein 2 (NSD2) in an isogenic RCH-ACV NSD2 p.E1099K mutant (9B) (AID 1645876); note: % is set by controls: 0 for no effect and ±100 for the full control effect; nearly all actives have a fitted effect of over 70% in size
[3] = molecular target: Phospholipid hydroperoxide glutathione peroxidase GPX4 (Homo sapiens) (UniProt P36969); experiment: Primary qHTS Assay for Inhibitors of Recombinant Selenoprotein Glutathione Peroxidase 4 (GPX4) (AID 1845192); note: % is set by controls: 0 for no effect and ±100 for the full control effect; nearly all actives have a fitted effect of over 65% in size
Sequence of UniProt P36969 (P36969 whole entry, looked up): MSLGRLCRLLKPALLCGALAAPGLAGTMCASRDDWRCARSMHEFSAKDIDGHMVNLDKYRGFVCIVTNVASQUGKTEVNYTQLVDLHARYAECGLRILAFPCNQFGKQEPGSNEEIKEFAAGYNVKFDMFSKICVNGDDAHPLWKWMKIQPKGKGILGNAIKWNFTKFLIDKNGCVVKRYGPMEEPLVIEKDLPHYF
Method in brief: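 GR-coupled assay: recombinant GPX4 preincubated 30 min with compound at room temperature; final 200 nM GPX4, 1 mM GSH, 0.5 mM cumene hydroperoxide, 0.5 mM NADPH, 100 nM GR, 0.01% BSA, pH 7.5 Tris. NADPH fluorescence (340/450 nm) read at 0 and 15 min.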

[4] = Primary redox qHTS assay for identification of artifact compounds. (AID 1845223); conditions: Amplex Red/HRP redox cycling with DTT, fluorescence; redox activity (% of DA3003): at 53.8 µM (top of the series);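 note: 0% = DMSO and 100% = reference compound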
Method in brief: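 Amplex Red (25 uM) and HRP (250 mU/mL) in HBSS, with compounds for 15 min, then 250 uM DTT for 30 min, room temperature, dark. Fluorescence 525/598 nm read; normalized to DMSO and 10 uM DA3003; Hill fit.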

CRL-7250 = normal cell line; experiment: Cytotoxic Profiling of Annotated Libraries Using Quantitative High-Throughput Screening (AID 1296008); conditions: Five cell lines viability, CellTiter-Glo ATP luminescence, 48-72 h; max response: stronger effect = lower value; note: nearly all actives have a fitted effect of over 60% in size; note: potency is the fitted concentration of half-maximal effect; for max response: % is set by controls: 0 for no effect and ±100 for the full control effect
Method in brief: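 Cells exposed to compounds for 48 or 72 hr at 37 degrees Celsius. Viability read as ATP-coupled luminescence with CellTiter-Glo after 10 min at room temperature.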

CAOV3 = experiment: Primary qHTS to identify gynecologic anti-cancer compounds using libraries of approved drugs and bioactive compounds (AID 1345084); conditions: Gynecologic cancer cell panel viability, ATPlite luminescence, 48 h; activity change, negative = cytotoxicity: at 57.5 µM (top of the series); note: nearly all actives have a fitted effect of over 55% in size; note: potency is the fitted concentration of half-maximal effect; for activity change, negative = cytotoxicity: % is set by controls: 0 for no effect and ±100 for the full control effect
Method in brief: (§1)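 Five-point cytotoxicity, 48 h drug exposure at 37 C, 5% CO2, on cells seeded 16 h beforehand. ATP content read by ATPlite luminescence.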

[5] = P-glycoprotein substrates identified in KB-8-5-11 adenocarcinoma cell line, qHTS therapeutic library screen (AID 1346987); note: potency is the fitted concentration of half-maximal effect; nearly all actives have a fitted effect of over 65% in size
Method in brief: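 P-gp-mediated resistance screen: KB-8-5-11 cells treated 72 h with compounds in dose-response. CellTiter-Glo viability.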

[6] = molecular target: Cytochrome P450 2C9 (Homo sapiens) (UniProt P11712); experiment: Cytochrome P450 family 2 subfamily C member 9 (CYP2C9) small molecule antagonists: luciferase biochemical (cell-free) qHTS assay (AID 1645842; active = well fitted curve in the direction sought with a large enough effect in the repeat runs; inconclusive = weak or mixed curves; inactive = no such curve, though single readings can be large; an effect the other way counts as inactive or inconclusive; note: potency is the fitted concentration of half-maximal effect; nearly all actives have a fitted effect of over 55% in size)
Sequence of UniProt P11712 (P11712 whole entry, looked up): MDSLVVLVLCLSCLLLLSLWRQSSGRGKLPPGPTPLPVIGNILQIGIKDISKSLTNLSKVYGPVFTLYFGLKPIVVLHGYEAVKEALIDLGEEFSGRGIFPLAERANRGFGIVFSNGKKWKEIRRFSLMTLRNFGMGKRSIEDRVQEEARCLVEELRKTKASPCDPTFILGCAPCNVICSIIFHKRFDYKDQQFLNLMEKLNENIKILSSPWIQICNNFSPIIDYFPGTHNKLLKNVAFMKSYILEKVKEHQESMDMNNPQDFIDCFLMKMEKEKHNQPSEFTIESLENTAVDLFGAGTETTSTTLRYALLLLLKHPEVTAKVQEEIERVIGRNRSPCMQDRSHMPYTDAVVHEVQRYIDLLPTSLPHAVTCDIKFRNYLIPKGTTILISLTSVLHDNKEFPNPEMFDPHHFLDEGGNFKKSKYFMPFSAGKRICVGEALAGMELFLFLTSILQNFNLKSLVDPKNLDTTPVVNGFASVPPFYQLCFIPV
Method in brief: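 Luminescence, after 20 min with luciferin detection reagent, reflected CYP2C9 turnover during a 1 h NADPH-driven reaction at 37C. Enzyme-substrate mix contained 0.4% bovine serum albumin and was preincubated with compound 10 min at room temperature.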

[7] = NCATS anti-infectives library activity on HEK293 viability as a counter-qHTS vs the C. elegans viability qHTS (AID 1745854);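 note: potency is the fitted concentration of half-maximal effect; HEK293 cells exposed to compounds for 24 hr before the viability read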
Method in brief: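 Cytotoxicity in human HEK293 cells is measured by ATP-dependent CellTiter-Glo luminescence following a 24 hr incubation with titrated library compounds at 37C. Top final concentration is 41.7 uM.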

[8] = Primary fluorescence-based thiol-reactive (MSTI) qHTS assay for identification of artifact compounds. (AID 1845221);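 note: thiol-reactive compounds lower the probe fluorescence signal; nearly all actives have a fitted effect of over 65% in size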
Method in brief: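 Thiol-reactive compounds detected by quenching of 4 uM MSTI fluorescence (525/598 nm) after 1 h room-temperature dark incubation in PBS pH 7.4, 2% DMSO. qHTS titration; percent inhibition Hill-fitted against Acetyl-MSTI/MSTI controls.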

CASKI = experiment: Primary qHTS to identify gynecologic anti-cancer compounds using libraries of approved drugs and bioactive compounds (AID 1345084); conditions: Gynecologic cancer cell panel viability, ATPlite luminescence, 48 h; series mostly up to 57.5 µM; note: nearly all actives have a fitted effect of over 55% in size; note: potency is the fitted concentration of half-maximal effect; for activity change, negative = cytotoxicity: % is set by controls: 0 for no effect and ±100 for the full control effect
Method in brief: as §1

Es-2 = experiment: as above; conditions: Gynecologic cancer cell panel viability, ATPlite luminescence, 48 h; series mostly up to 57.5 µM
Method in brief: as §1

HeLa = experiment: as above; conditions: Gynecologic cancer cell panel viability, ATPlite luminescence, 48 h; activity change, negative = cytotoxicity: at 57.5 µM (top of the series)
Method in brief: as §1

Hek293T = experiment: as above; conditions: Gynecologic cancer cell panel viability, ATPlite luminescence, 48 h, control line for the selectivity index; activity change, negative = cytotoxicity: at 57.5 µM (top of the series) unless noted
Method in brief: as §1

OV90 = experiment: as above; conditions: Gynecologic cancer cell panel viability, ATPlite luminescence, 48 h; series mostly up to 57.5 µM
Method in brief: as §1

PA-1 = experiment: as above; conditions: Gynecologic cancer cell panel viability, ATPlite luminescence, 48 h; series mostly up to 57.5 µM
Method in brief: as §1

SKOV3 = experiment: as above; conditions: Gynecologic cancer cell panel viability, ATPlite luminescence, 48 h; series mostly up to 57.5 µM
Method in brief: as §1

Tov-21-G = experiment: as above; conditions: Gynecologic cancer cell panel viability, ATPlite luminescence, 48 h; activity change, negative = cytotoxicity: at 57.5 µM (top of the series) unless noted
Method in brief: as §1
Tags give direction and shape of the fitted curve.

Question: Which results are given for `C[C@@H]1N[C@H]2N(C1=O)c1ccccc1[C@@]2(O)C[C@@H]1C(=O)N[C@@H](C)c2nc3ccccc3c(=O)n21`?
Answer: Potency [1]: inactive; Potency [2]: inactive; Potency [3]: inactive; Potency [4]: inactive; Potency (CRL-7250): inconclusive [inhibitor, partial curve, poor fit]; Potency (CAOV3): inactive

Question: Which results are given for `COc1cc(NC(=O)Nc2cccc(CNC(=O)O[C@H]3CCOC3)c2)ccc1-c1cnco1`?
Answer: Potency [5]: inconclusive [inhibitor, single point]; Potency [6]: active: 0.0379 µM; Potency [7]: inconclusive [cytotoxic, single point]; Potency [8]: inactive; Potency (CRL-7250): active: 8.2 µM; Potency (CASKI): inconclusive [cytotoxic, partial curve, poor fit]; Potency (Es-2): inconclusive [cytotoxic, partial curve]; Potency (HeLa): inconclusive [cytotoxic, partial curve]; Potency (Hek293T): inconclusive [cytotoxic, partial curve]; Potency (OV90): inconclusive [cytotoxic, full curve]; Potency (PA-1): active: 1.41 µM; Potency (SKOV3): inconclusive [cytotoxic, single point]; Potency (Tov-21-G): active: 8.91 µM

Question: Which Potency [4] does the source give for `COCCCNCC1COc2ccccc2O1` (configuration not stated) here?
Answer: inactive

Question: And the max response (CRL-7250)?
Answer: inactive: 1.45%

Question: And the Potency (CAOV3)?
Answer: inactive
